Reference: the RNAGym collection of RNA variant scans (doi:10.7554/elife.90254)
The source gives no read counts; variants with many changes may rest on few reads.

B1: OR4K15 (parent)
chain: GUUAACGGUCAUAGGCCAUGGAAACUAGGAGCACCAUUUCGCUGCCAGUGAAGAAAUGAACAAAGAAAAUCUGGGCCAGGCAGGCAUCAAAAGAAAUAGUCUUGCGCUCAACCAGAAAGUCUGUAAUCAUUUUAAGGGUA

Variants of: B1
Test: self-cleavage, relative activity (ratio to wild type); higher = more cleavage; in vitro, sequencing; the parent is a self-cleaving ribozyme

Variant	self-cleavage
U12C A30G U108C	0
A68G U70A U103C	0.46
A78U A94G U102G U132C	0.05
A13U U19G A96G U132C	1.17
U2C A33U A78U A91G U103C A134G	0.04
A47G A56G A63G	1.02
G15A A30G U38C A86C A96G	1.11
U9A A13G A23G A24G	1.15
U2C G14U A54G A118G	0.11
A18G A52U A56G	0.93
A63G U72C A116U U139C	0.02
A64G A111G A126C G136A	0.01
A5G A30G A54G U87C A114U	0.2
U3A A18G A33G U49C A78G A116G	0.17
U97C A111G G136A	0.03
A51G A96G A111G A117G U139C	0
A11G A51G A78U U87A U103C A110C	0.1
U38C A67C A82U A110G	0.02
A23G U122G U130C	1.92
A11G A30U A55G	0.11
A23G U131C G136A	1
A5G A33U U127A	2.12
G15U A86U A117G U120A	2.7
A56G U102A U108C	0.01

Variant	self-cleavage
A52G U72C A117G	0.3
A13G A56C A59G A129G	0.42
U12C A22U A51U A94G C107A	0.02
G31A A33G U38G A64G G84C	0.27
C10U A90G U122C	0.22
A22U U108C G136A A140G	0.02
U2C A66G U108G	0.03
A89C A96G A140G	1.51
A91G U122A A129G G136U	0.3
U9C G44A A68G A90G	0.79
U9A A98G A114G A117G	0.14
U57G A92G C105A	0.07
A33G C45G A117G	1.19
A30U A86G A92G U103C A129G	0.59
U38G U102C U127C U132C	1.28
A52U A59G A68G U87C U100G	1.76
A33C A117G A126G	2.73
A51G A64G G75A A116U	0
A33U U38A A63G U72A	0.69
U2C U3A A64G A96G	1.47
U38G U43G G83A A110G A129G	0.12
A63G U70A U122A	1.15
U9C A56G A134C	1.52
A18G G29U A94G A96G	1.46

Variant	self-cleavage
A52G A59U U108A	0.01
A13U U37C C88U	0.76
U38C U87C U102C	2.17
A56U A59G A66G A118G	0.32
A56G A60G U139C	1.55
U49A U72G A86G A95G A118U	0.02
U100C U102A U133C	1.78
A18C G80U A94G U130C	0.14
A22G A59G A78U A91G	0.09
U49C A66G U87C A94G U120C	1.89
U43A A62G A86G A90G	0.84
U120A U131C A135G	1.99
U39C A54G A118G	0.83
A5G G44A A86U	1.81
A27U U43C A54G A82C U108C U122C	0.01
A5G A30G A78G A90U U100C A117G	0.32
A82U A94G U108C U131A	0.03
U43C U103A U132C	0.79
U43C U70C A125G	0.14
A94G A110G U132C	0.12
U72A A91G A92G	0.23
A63C A89U U108C A135U	0
U9C U43C A68G A118G	0.77
A55G U102C A116G	0.64

Variant	self-cleavage
U49C A110G A111U A116G G137U	0.01
C34G A51G A55G	2.23
A47U A92U U108A	0.04
A63G A64G U87C A94G	1.97
A52G A68G A69G	0.99
A11G U49A A90G U103C	0.61
A5C U87C U103C	0.8
A30U A56C A95G	1.48
G7U C35U U72C U103C	0.03
A27G A56G A95G	2.37
A60G A63G A82G A89G A94G A125G U139C	0.2
A52U A68G U72C A98U U108A A140U	0.02
U9A U39C U87C	1.64
U9C A33C C34A U43A	0.13
U43C A66G A110G	0.23
A22G A92G A111G	0.04
A89C U100C U102C	1.01
U9C A59G A82G A94G	0.77
U9C A56G U102C	1.27
U9C A24G C34U A68G G75C	0.3
A54G A116C G136C	0.09
A23U U43C A59U	0.89
U12A A114G A118G	0.27
U3C A30U A52G	1.77

Variant	self-cleavage
U70C A78U U127A	0.21
A33G U43C A66G A94G	1.19
A18G U38A A110U	2.47
U9C U12C A54G A67G	0.68
A98U A114G A118G U132C	0.4
A22G A86G A90G U102C A118G U130C	0.76
A11G A30G A89U	1.48
A5G A27G A36G U57C A63G	0.95
A23G U49C A82G A98G U108C A126G	0.01
A82U A98G G106A	0.01
U9C A78G A90G A116U	0.06
A5G A55G A126U	1.16
U9C A52G G74A U108C U120C U122C A126U U130C	0.01
U87C A116U A125G	0.03
A13G A67G G80C A117U	0.21
U12A A91G A111U A140U	0.14
A18U A95G U103C	1.19
U19A A54G A69G A90G	1.16
A18G A67G A78G G99A C101A	0.1
G41A A110U A140G	0.58
U12C U38C U108A	0.01
G29A A69G A95G	1.91
U102C A135U G137U	2.07
U43A G84C A86U A96G	0.93

Variant	self-cleavage
A78G U87A A129G	0.17
U2C A27U U43C A111G	0
A18G A110G A140G	0.18
A59U A78G A86G	0.14
A52G U97C G115A	0.03
A11G C109U A111G	0.02
U2C G14A A116U	0.2
A63U U103C A117G	1.82
U43C A66G C112U	0.02
A22G A89G C101U	0.3
A56U A59G A82U	0.12
A78G U122A A135G	0.17
U9C A33U A36G U49C	1.6
A30G U43A A90U U130C	1.2
U19C A24C G137U	1.16
A22G A69G A86U	1.19
U2C A47U A55U A69G U70C A94G U122C	0.07
A54C A78U A126G	0.11
U2C A22G U139C	1.29
A64G U72A A117G	0.25
A23G A56G U108C A111C A116G U122C	0.01
U57C A91G A118U	0.15
A91G A94G U108A	0.03
U9C A18U A59U A95G	1.7

Variant	self-cleavage
U3A A69U U97C A98U	0.35
A36G A55U G58U	0.62
A52G A78G A111G	0.01
U3A U127A A134U	1.67
A4G G41U A47U A55C A60U A67U U102A	0.87
U9A U49C A52U U70C A92G A117G	1.16
U108C A110G U130C U131C	0
U43C A86G U127C	0.43
U37C A55G U87C A91G U100A U103C U127C	0.02
U2A A55G U87C	0
A54G A63G A114G U122A	0.34
A4G A24G C121U	2.25
U19A A23U A98G U127A	0.65
A33U A78U A90G A140U	0.1
U2C A23G A24G	1.69
C6U U37C U43C U100C U130C	1.9
U43C A82U A94G A118G	0.13
A68G A116G U132C	0.84
U19C A23G G50A A54G A68U U120C U132C	0.57
G15C A59U A67G C77U A116G U124A	0.33
A60G A68G A96G A118G U130C	0.53
U72A A78U U87C U103C	0.09
U49A U102C A118G A129U	0.84
